Experimental findings from the antibiotic and cytotoxicity screens of Wong et al. (2023) are described below.

The other results are listed elsewhere or left out.

One assay concerns HSkMC. As to the kind of experiment: cytotoxicity call (relative viability < 0.9). The conditions noted are these: 10 µM.
Another assay relates to HepG2. Description: cytotoxicity call (relative viability < 0.9). The conditions noted are these: 10 µM.
The next assay concerns S. aureus RN4220. As to the kind of experiment: growth inhibition call (relative growth <= 0.2). Conditions: 50 µM.

With `CC(=O)N(C)C[C@H]1Oc2ncc(C#CC(C)(C)O)cc2C(=O)N([C@H](C)CO)C[C@@H]1C`, the cytotoxicity call with HSkMC and with HepG2 was “inactive” each time. Besides, the growth inhibition call in the assay on S. aureus RN4220 is “inactive”.
As for `Cc1ccc(S(=O)(=O)N(C)C[C@@H]2OCCCC[C@H](C)Oc3ccc(NS(C)(=O)=O)cc3C(=O)N([C@@H](C)CO)C[C@H]2C)cc1`, the cytotoxicity call in the assay with HSkMC and in the assay on HepG2 was “inactive” each time. Further, in the assay with S. aureus RN4220, the growth inhibition call is “inactive”.
For `C[C@@H]1CCCCO[C@@H](CN(C)C(=O)C2CCCCC2)[C@@H](C)CN([C@H](C)CO)C(=O)c2cc(NC(=O)c3ccncc3)ccc2O1`, the cytotoxicity call in the assay on HSkMC and in the assay on HepG2 was “inactive” each time. For the same molecule, the growth inhibition call in the assay with S. aureus RN4220 was “inactive”.
As to `Cc1ccc(S(=O)(=O)N2C[C@@H](O)COC[C@@H]3O[C@H](CC(=O)N[C@@H]4CCN(Cc5ccccc5)C4)CC[C@H]32)cc1`, the cytotoxicity call with HSkMC and in the assay on HepG2 was “inactive” in each case. Further, in the assay on S. aureus RN4220, the growth inhibition call is “inactive”.
Regarding `C[C@@H]1CN([C@H](C)CO)C(=O)Cc2cc(NS(=O)(=O)c3cccs3)ccc2O[C@H]1CN(C)Cc1ccc(Cl)c(Cl)c1`, the cytotoxicity call in the assay on HSkMC is “active”. Besides, the cytotoxicity call in the assay on HepG2 was “inactive”. The growth inhibition call in the assay on S. aureus RN4220 was “inactive”.
With `Cc1noc(C)c1S(=O)(=O)Nc1cccc2c1O[C@H](CN(C)S(=O)(=O)c1ccccc1)[C@H](C)CN([C@H](C)CO)C2=O`, the cytotoxicity call in the assay with HSkMC and with HepG2 was “inactive” each time. Also, the growth inhibition call with S. aureus RN4220 was “inactive”.
Consider `CC(C)NC(=O)N(C)C[C@H]1Oc2ccc(NC(=O)CCC(F)(F)F)cc2C(=O)N([C@H](C)CO)C[C@@H]1C`, for which the cytotoxicity call in the assay with HSkMC and in the assay with HepG2 was “inactive” throughout. For the same molecule, in the assay with S. aureus RN4220, the growth inhibition call is “inactive”.
For the molecule `Cc1onc(-c2ccccc2)c1CN`, the cytotoxicity call with HSkMC and in the assay on HepG2 was “inactive” each time. Also, in the assay on S. aureus RN4220, the growth inhibition call is “inactive”.
With `CO[C@H]1CN(C)C(=O)c2cc(NC(=O)NC3CCCCC3)ccc2OC[C@H](C)N(CCc2ccccc2)C[C@H]1C`, the cytotoxicity call with HSkMC and in the assay with HepG2 was “inactive” each time. For the same molecule, the growth inhibition call in the assay with S. aureus RN4220 is “inactive”.
As for `Cc1noc(C)c1S(=O)(=O)Nc1cccc2c1O[C@H](CN(C)S(=O)(=O)c1ccc(Cl)cc1)[C@H](C)CN([C@@H](C)CO)C2=O`, the cytotoxicity call in the assay with HSkMC and with HepG2 was “inactive” throughout. For the same molecule, in the assay with S. aureus RN4220, the growth inhibition call was “inactive”.
In the case of `CC1CCC2(C(=O)OC3OC(COC4OC(CO)C(OC5OC(C)C(O)C(O)C5O)C(O)C4O)C(O)C(O)C3O)CCC3(C)C(=CCC4C5(C)CC(O)C(O)C(C)(CO)C5CCC43C)C2C1C` (configuration not stated), the cytotoxicity call in the assay on HSkMC and in the assay with HepG2 was “inactive” each time. For the same molecule, in the assay on S. aureus RN4220, the growth inhibition call was “inactive”.
Consider `CC(=O)O[C@H]1C[C@](C)(O)C2=C[C@@H](O)[C@@](C)(O)[C@@H]2[C@H]2OC(=O)[C@@H](C)[C@@H]21`, for which the cytotoxicity call in the assay with HSkMC and in the assay with HepG2 was “inactive” each time. Also, the growth inhibition call in the assay with S. aureus RN4220 was “inactive”.
Regarding `COCC#Cc1ccc2c(c1)O[C@@H](CN(C)S(C)(=O)=O)[C@H](C)CN([C@H](C)CO)S2(=O)=O`, the cytotoxicity call in the assay with HSkMC and in the assay on HepG2 was “inactive” in each case. Also, the growth inhibition call with S. aureus RN4220 is “inactive”.
On to `C[C@@H]1CN([C@@H](C)CO)C(=O)c2cccc(NC(=O)NC3CCCCC3)c2O[C@@H]1CN(C)C(=O)Nc1ccc(C(F)(F)F)cc1`, for which, in the assay on HSkMC, the cytotoxicity call was “active”. Also, the cytotoxicity call with HepG2 is “inactive”. Further, the growth inhibition call in the assay with S. aureus RN4220 was “inactive”.
Regarding `C[C@@H]1CCCCO[C@H](CN(C)C(=O)Nc2ccccc2)[C@@H](C)CN([C@H](C)CO)C(=O)c2cc(NC(=O)C3CCCCC3)ccc2O1`, the cytotoxicity call in the assay with HSkMC and in the assay with HepG2 was “inactive” throughout. Moreover, in the assay on S. aureus RN4220, the growth inhibition call is “inactive”.
For `C[C@@H]1CCCCO[C@@H](CN(C)Cc2ccc3c(c2)OCO3)[C@@H](C)CN([C@@H](C)CO)C(=O)c2cc(NC(=O)Nc3cccc4ccccc34)ccc2O1`, the cytotoxicity call in the assay with HSkMC and with HepG2 was “inactive” each time. In addition, the growth inhibition call in the assay with S. aureus RN4220 is “inactive”.
On to `C[C@H]1C[C@@](N)(C(=O)O)C1`, for which the cytotoxicity call with HSkMC and in the assay on HepG2 was “inactive” each time. For the same molecule, in the assay on S. aureus RN4220, the growth inhibition call was “inactive”.
As to `COc1ccc(S(=O)(=O)N2C[C@@H](O)COC[C@H]3O[C@@H](CC(=O)N[C@@H]4CCN(Cc5ccccc5)C4)CC[C@@H]32)cc1`, the cytotoxicity call with HSkMC and in the assay with HepG2 was “inactive” throughout. The growth inhibition call in the assay with S. aureus RN4220 was “inactive”.
For the molecule `C[C@@H]1CN([C@@H](C)CO)C(=O)c2cc(NS(=O)(=O)c3cn(C)cn3)ccc2O[C@@H](C)CCCCO[C@H]1CN(C)S(=O)(=O)c1ccc(F)cc1`, the cytotoxicity call in the assay on HSkMC and with HepG2 was “inactive” each time. The growth inhibition call with S. aureus RN4220 was “inactive”.
As for `Cc1cccc(S(=O)(=O)N2C[C@H](O)COC[C@H]3O[C@@H](CC(=O)N4CCN(C)CC4)CC[C@@H]32)c1`, the cytotoxicity call in the assay with HSkMC and in the assay with HepG2 was “inactive” each time. For the same molecule, the growth inhibition call with S. aureus RN4220 is “inactive”.
Take `C[C@@H]1CN([C@H](C)CO)S(=O)(=O)c2ccc(C#Cc3cccnc3)cc2O[C@@H]1CN(C)CC1CCOCC1`: the cytotoxicity call in the assay on HSkMC and with HepG2 was “inactive” throughout. The growth inhibition call with S. aureus RN4220 is “inactive”.
For the molecule `C[C@@H]1CN([C@@H](C)CO)C(=O)c2cccc(NC(=O)Nc3ccc4c(c3)OCO4)c2O[C@@H]1CN(C)Cc1ccc(-c2ccccc2)cc1`, the cytotoxicity call in the assay with HSkMC and in the assay on HepG2 was “active” each time. The growth inhibition call in the assay on S. aureus RN4220 was “inactive”.
As for `COc1ccc(NC(=O)Nc2cccc3c2O[C@H](CN(C)S(C)(=O)=O)[C@H](C)CN([C@@H](C)CO)C3=O)cc1`, the cytotoxicity call in the assay on HSkMC (human skeletal muscle cells) and in the assay with HepG2 was “inactive” in each case. Moreover, the growth inhibition call in the assay with S. aureus RN4220 is “inactive”.
As to `C[C@H]1CCCCO[C@@H](CN(C)Cc2ccncc2)[C@@H](C)CN([C@@H](C)CO)C(=O)c2cc(NC(=O)Nc3ccc4c(c3)OCO4)ccc2O1`, the cytotoxicity call with HSkMC and in the assay with HepG2 was “inactive” throughout. Further, in the assay with S. aureus RN4220, the growth inhibition call is “inactive”.
